# According to PubChem BioAssay AID686979 (National Center for Advancing Translational Sciences (NCATS), 2013):
# Values joined by “and” are separate entries in the source; they are usually repeats but may differ in a detail not shown here. Equal values may be shown once. Out of some 420,000 compounds screened, about 50,000 (12%) were called active. Inconclusive means that the source gave no clear call. Such entries were picked first, then a sample of the others. The call rests on the fitted dose curve; in most records, active means well fitted inhibition curve with a large enough effect; inconclusive means small, poorly fitted or top-dose-only effect; inactive means flat fitted curve, though single readings scatter. Potencies beside an inconclusive call are fits to weak or partial responses and may not hold up.
# Assay: qHTS for Inhibitors of human tyrosyl-DNA phosphodiesterase 1 (TDP1): qHTS in cells in presence of CPT; further: nearly all actives have a fitted effect of over 55% in size
# Details: chicken DT40 Tdp1-/-;hTDP1 cells + 20 nM CPT, ATP luminescence, 48 h; activity change, negative = growth inhibition: at 46.2 µM (top of the series) unless noted
# In short: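 Chicken DT40 Tdp1-/- cells complemented with human TDP1, 400 cells/well, exposed to compounds plus 20 nM camptothecin for at least 48 h at 37 C; viability read as ATP content by CellTiter-Glo luminescence.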
# On the % scale 0 is the no-effect control and ±100 the full control effect; potency means the concentration at half of the fitted maximal effect; tags describe the fitted curve by direction and shape.
SMILES,Potency,"activity change, negative = growth inhibition"
COc1ccccc1CNC(=O)c1ccccc1OCc1ccc(F)cc1,"inconclusive: 23.1 µM [inhibitor, single point]",–
OC(CN1CCOCC1)Cn1c2ccccc2c2ccccc21 (centres undefined),inactive,–
Cc1nn(Cc2ccccc2)c(C)c1NC(=O)CSc1nc2c(c(C(F)(F)F)n1)CCc1ccccc1-2,"inconclusive: 14.6 µM [inhibitor, partial curve, poor fit]",–
O=C(Nc1cccc(Br)c1)c1ccccc1-c1ccccc1,"inconclusive: 29.1 µM [inhibitor, single point]",–
CN1CCN(c2oc(/C=C/c3ccc(F)cc3)nc2C#N)CC1,"inconclusive: 29.1 µM [inhibitor, single point]",–
COc1ccc(C)cc1S(=O)(=O)N1CCC2(CC1)OCCN2S(=O)(=O)c1cccs1,"inconclusive: 20.6 µM [inhibitor, single point]",–
CCOC(=O)C1(Cc2ccccc2)CCCCCC1=O (centres undefined),"inconclusive: 11.6 µM [inhibitor, single point]",–
Cc1cccc(-n2c(SCc3nc(-c4ccccc4C)no3)nnc2-c2ccccc2)c1,inactive,–
O=C(COc1ccc(Br)cc1CO)Nc1ccc(S(=O)(=O)N2CCCCC2)cc1,"inconclusive: 29.1 µM [inhibitor, single point]",–
CCN(CC(=O)Nc1c(F)cccc1F)C(=O)CCc1nc2ccccc2c(=O)[nH]1,inactive,–
COc1ccc(NC(=O)N(CCC(C)C)C(C)c2ccccn2)c(OC)c1 (centres undefined),active: 23.1 µM,–
O=C(C[C@@H]1C/C=C\C[C@@H](Cc2ccc(F)cc2)C(=O)OCCNC1=O)N[C@H](CO)Cc1ccccc1,active: 20.6 µM,–
N#Cc1ccc(-c2nc3ccc(Br)cn3c2Cc2cccc(Cl)c2)cc1,"inconclusive: 20.6 µM [inhibitor, single point]",–
CCN(CC)S(=O)(=O)c1ccc(N(C)Cc2ccc(C(F)(F)F)cc2)nc1,"inconclusive: 20.6 µM [inhibitor, single point]",–
COc1ccc(-n2c(Cn3c(=O)sc4ccccc43)nnc2SCC(=O)N2CCCC2)cc1,inactive,–
CC(C)[C@H](NC(=O)OCc1ccccc1)C(=O)OCC(=O)N1C(C)CCCC1C (some centres undefined),inactive,–
COc1ccc(CCN2CC(C(=O)NCc3cccc4[nH]ccc34)CCC2=O)cc1 (centres undefined),"inconclusive: 14.6 µM [inhibitor, single point]",–
CCOc1ccc(-n2nc(CO)c(C(=O)NCc3cccnc3)n2)cc1,"inconclusive: 20.6 µM [inhibitor, single point]",–
CC[N+](C)(CC)CCOC(=O)C1c2ccccc2Oc2ccccc21,"inactive and inconclusive: 42.2 µM [inhibitor, partial curve, poor fit]",–
COc1cc(NC(=O)Cc2nn(C)c(=O)c3ccccc23)cc(OC)c1OC,"inconclusive: 25.9 µM [inhibitor, single point]",–
Cc1ccc(C)c(N2CCN(S(=O)(=O)c3ccc4c(c3)C(C)(C)C(=O)N4C)CC2)c1,"inconclusive: 18.4 µM [inhibitor, single point]",–
COc1ccccc1C(=O)NCC(=O)OC(C)C(=O)N(C)C1CCCCC1 (centres undefined),inactive,–
COc1ccc(C2(C(=O)c3ccccc3)C(=O)c3ccccc3C2=O)cc1,"inconclusive: 23.1 µM [inhibitor, single point]",–

SMILES,Potency,"activity change, negative = growth inhibition"
Cc1ccc(NC(=O)CC2SC3=NCCN3C2=O)cc1 (centres undefined),"inconclusive: 29.1 µM [inhibitor, single point]",–
C[C@]12c3[nH]c4cc(-c5ccco5)ccc4c3CCN1C(=O)[C@@H](CC(=O)NCCc1ccccn1)C[C@@H]2C(=O)N1CCOCC1,"inconclusive: 25.9 µM [inhibitor, single point]",–
COc1ccc2c(c1)c1nc(SCC(C)C)n(CCO)c(=O)c1n2C,–,inconclusive: -36.6% [inhibitor]
COc1ccc(OC)c(S(=O)(=O)NC2CC(=O)N(c3cccc(F)c3)C2)c1 (centres undefined),inactive,–
CC(=O)NC(=S)Nc1cccc2c(C)cc(C)nc12,inactive,–
CCNc1nc(NC(C)C)nc(Oc2ccc(/C=N/O)cc2)n1,inactive,–
Oc1ccc(C=Nc2cccc3ncccc23)c(O)c1,"inconclusive: 16.4 µM [inhibitor, partial curve, poor fit]",–
Cc1cc(NC(=O)C(C)Oc2ccc(Cl)cc2Cl)n(-c2ccccc2)n1 (centres undefined),"inconclusive: 20.6 µM [inhibitor, single point]",–
Cc1ccc(-n2nc3c(c2NC(=O)c2cccs2)CSC3)cc1,"inconclusive: 20.6 µM [inhibitor, single point]",–
Cc1cccc(C)c1-n1nnnc1-c1nc2cc(Br)ccc2[nH]c1=O,"inconclusive: 29.1 µM [inhibitor, single point]",–
CC1Cc2ccccc2N1C(=O)C1CCCN(S(=O)(=O)c2cccc3cccnc23)C1 (centres undefined),active: 13 µM,–
NC(=NCCc1ccc(Cl)cc1)NS(=O)(=O)c1ccccc1,"inconclusive: 16.4 µM [inhibitor, partial curve, poor fit]",–
Cc1c(CCC(=O)NCCCn2ccnc2)c(=O)oc2c(C)c3oc4c(c3cc12)CCCC4,"inconclusive: 29.1 µM [inhibitor, single point]",–
CC(C)(C)Nc1nc(Cl)nc(NC2CCCCC2)n1,–,inconclusive: -35.7% [inhibitor]
CCc1c(C)sc(NC(=O)c2cccs2)c1C#N,–,inconclusive: -30.8% [inhibitor]
O=C(NNC(=S)Nc1cccc(C(F)(F)F)c1)c1ccccc1Cl,"inconclusive: 29.1 µM [inhibitor, single point]",–
Clc1ccc(CNc2ccccc2NCc2ccc(Cl)nc2)cn1,active: 16.4 µM,–
CCN(CC)CCCNC(=O)Cn1nc(C)n2c(cc3sccc32)c1=O,inactive,–
CS(=O)(=O)N1CCN(c2nc(-c3cccs3)nc3ccccc23)CC1,active: 15.8 µM,–
CC(C)(C)c1ccc(S(=O)(=O)N(CCCN2CCOCC2)Cc2cccs2)cc1,"inconclusive: 29.1 µM [inhibitor, single point]",–
C=CCn1c(-c2ccc(Cl)cc2)cnc1SC(C)C(N)=O (centres undefined),inactive,–
COc1ccc(N2CCN(C(CNC(=O)C(=O)NCCC3=CCCCC3)c3ccco3)CC2)cc1 (centres undefined),"inconclusive: 16.4 µM [inhibitor, single point]",–
Cc1cc(=O)oc2cc(OCC(=O)NCc3ccccn3)ccc12,inactive,–

SMILES,Potency,"activity change, negative = growth inhibition"
CN(C(=O)c1cccc(NC(=O)Cc2ccc(NC(=O)C3CCCN(C(=O)c4ccccc4)C3)cc2)c1)C1CCCCC1 (centres undefined),"inconclusive: 25.9 µM [inhibitor, single point]",–
COc1ccc(C(CNC(=O)COc2cccc(C)c2)N2CCCC2)cc1 (centres undefined),"inconclusive: 29.1 µM [inhibitor, single point]",–
C=CCn1cccc(C(=O)Nc2ccc(OC)cc2OC)c1=O,"inconclusive: 25.9 µM [inhibitor, single point]",–
CCOP(=O)(OCC)c1nc(-c2ccccc2)oc1N1CCCCC1,active: 20.6 µM,–
O=C(CSc1n[nH]c(=O)[nH]c1=O)N/N=C/c1ccccc1O,active: 13 µM,–
CCCCc1ccc(NC(=O)Cn2nnc3sc4c(c3c2=O)CCC(C)C4)cc1 (centres undefined),"inconclusive: 5.17 µM [inhibitor, single point]",–
COc1ccc(NC(=O)Nc2nnc([C@H]3C[C@H](O)[C@@H](CO)O3)s2)cc1,inactive,–
O=C(CSc1nc2nn(-c3ccccc3)c(=O)c-2c2n1CCCCC2)c1ccc(OC(F)F)cc1,"inconclusive: 16.4 µM [inhibitor, single point]",–
COc1ccc(C(=O)COC(=O)C(CCCCN2C(=O)C3C4C=CC(C4)C3C2=O)N2C(=O)C3C4C=CC(C4)C3C2=O)cc1 (centres undefined),"inconclusive: 16.4 µM [inhibitor, single point]",–
COc1ccc(Cn2nnc3c(=O)[nH]c(C4CCCN(C(=O)c5ccc(C)cc5)C4)nc32)cc1 (centres undefined),"inconclusive: 20.6 µM [inhibitor, single point]",–
CCOc1ccc(OCC)c(NC(=O)CSc2nc3cccnc3n2C)c1,"inconclusive: 18.4 µM [inhibitor, single point]",–
CCC1CSC(Nc2ccc(C(=O)/C=C/c3ccc(OC)c(OC)c3)cc2)=N1 (centres undefined),"inconclusive: 18.4 µM [inhibitor, single point]",–
CCN(CC)CCN(Cc1cc2cc3c(cc2[nH]c1=O)OCCO3)C(=S)NCCCOC,inactive,–
O=C(Cn1c2c(c(-c3ccccc3)cc1=O)CCCC2)N1CCCCCC1,"inconclusive: 29.1 µM [inhibitor, single point]",–
O=C(O)c1cc(N2CCCCC2)nc2ccccc12,inactive,–
CCOc1ccc2nc(SCCNS(=O)(=O)c3ccccc3)sc2c1,inactive,–
O=C(Nc1ccc2c(c1)OCO2)C1CCCN1C(=O)Nc1ccccc1 (centres undefined),inactive,–
CCCS(=O)(=O)c1nc(S(=O)(=O)c2ccc(C)cc2)c(NCc2ccccn2)s1,"inconclusive: 25.9 µM [inhibitor, single point]",–
Cc1ccc(C(=O)c2oc3ccccc3c2NC(=O)Cc2coc3cc(C)ccc23)cc1,"inconclusive: 29.1 µM [inhibitor, single point]",–
Oc1c(N=Nc2ccc(F)cc2)ccc2ccccc12,active: 9.2 µM,–
COc1ccc(C(=O)Nc2cc(C)c3c(=O)oc4ccccc4c3n2)cc1,"inconclusive: 9.2 µM [inhibitor, partial curve, poor fit]",–
CCCCNC(=O)C(NC(=O)c1ccc(=O)[nH]c1)C(=O)c1ccccc1 (centres undefined),inactive,–
COCC(=O)N1CCC2(CCCN(C(c3ccccc3)c3ccccc3)C2)CC1,inactive,–
